Hit rate of the full screen: of about 46,000 compounds, about 60 (0.1%) were called active. Inconclusive results (about 3%) are left out. Calls come from the whole dose curve; as a rule, active = well fitted inhibition curve with a large enough effect; inconclusive = small, poorly fitted or top-dose-only effect; inactive = no such curve, though single readings can be large or run the other way. The list shows a part of the results.
assay: Primary qHTS assay for Inhibitors of ovarian cancer metastasis using an organotypic tumor microenvironment (TME) model.; note: nearly all actives have a fitted effect of over 65% in size;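 for activity change, negative = inhibition: plate controls were DMSO wells for no effect and tomatine positive control wells for full effect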; conditions: SKOV3ip1-GFP adhesion/invasion on 3D omental model, fluorescence; series mostly up to 45.8 µM; activity change, negative = inhibition: at the top concentration
How it was run: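 A 3D layer of primary human omental fibroblasts, mesothelial cells, fibronectin and collagen I, grown 48 hr, received SKOV3ip1-GFP cells in serum-free medium plus compounds at 0.36-46 umol/L. After 2 hr RT and 16 hr 37 C, fixed adherent GFP cells were counted; normalized to DMSO and tomatine.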

SMILES | activity change, negative = inhibition | outcome
CCOC(=O)c1ccc(NC(=O)c2ccc3c(c2)CCN3S(=O)(=O)c2ccc(Cl)cc2)cc1 | inactive: -12.5% | 
COc1cc2[nH]c(=O)n(Cc3ccc(C(=O)N4CCN(c5cccc(C)c5C)CC4)cc3)c(=O)c2cc1OC | inactive: -4% | 
Cc1cccc(NS(=O)(=O)c2nnc(NC(=O)C3CCCCC3)s2)c1 | inactive: 3.85% | 
CC(C)c1nn2c(=O)cc(COC(=O)c3ccc(NC(=O)c4ccccc4Cl)cc3)nc2s1 | inactive: -12.1% | 
O=C(CSc1n[nH]c(-c2ccccc2Cl)n1)N1CCN(c2ccc(F)cc2)CC1 | inactive: 10.7% | 
CCOC(=O)c1ccc(N2C(=O)c3n[nH]c(C)c3C2c2ccc(C(C)C)cc2)cc1 (stereo unspecified) |  | inactive
Cc1ccc(C)c(CN2C(=O)c3ccccc3Sc3ccc(C(=O)NCCCOC(C)C)cc32)c1 | inactive: 2.17% | 
CCOc1ccc(NC(=O)c2oc3ccccc3c2NC(=O)Cc2ccc(OC)c(OC)c2)cc1 | inactive: 30.2% | 
O=C(Nc1ccc(O)c(-c2nc3ccccc3o2)c1)c1cccs1 | inactive: 5.82% | 
COc1ccc2oc(=O)cc(CN3CCN(C(=O)c4ccccc4)CC3)c2c1 | inactive: -3.67% | 
O=C(OCC1CCCO1)c1ccc2c(c1)N(Cc1ccc(F)cc1)C(=O)c1ccccc1S2(=O)=O (stereo unspecified) |  | inactive
COc1cc(OC)c(N(C)C(=O)c2cc3c(s2)-c2ccccc2OC3)cc1Cl | inactive: -19% | 
COc1ccc2c(CNCc3cccs3)c(C(=O)O)n(Cc3ccccc3C)c2c1 | inactive: 5.55% | 
CCC(Sc1nc2ncccc2[nH]1)C(=O)Nc1ccccc1F (stereo unspecified) | inactive: -4.06% | 
CC(C)(C)c1cc(C(C)(C)C)c(NC(=O)c2c[nH]c3ccccc3c2=O)cc1O | inactive: -10.6% | 
Cc1ccc(Cl)cc1NC(=O)N1CCC(CN2CCc3ccccc3C2)CC1 |  | inactive
CCC(=O)NCc1nc2ccccc2n1Cc1ccccc1 | inactive: 7.88% | 
COCCCNc1nc2c(-c3cccc(Br)c3)nnn2c2ccccc12 | inactive: -2.63% | 
Cn1nc(-c2ccccc2F)c2cc(C(=O)N3CCN(c4ccccc4F)CC3)sc21 | inactive: 0.356% | 
CCOc1ccc(NC(=O)c2cc3nc(-c4ccc(OC)cc4)cc(C(F)(F)F)n3n2)cc1 | inactive: 3.42% | 
Cc1c(NC(=O)Cc2ccccc2)cccc1-c1nc2cccnc2s1 | inactive: 3.05% | 
CCOC(=O)c1c(C)[nH]c(C)c1S(=O)(=O)N1CCC(C(=O)NCc2ccc(OC)cc2)CC1 | inactive: -2.27% | 
COC(=O)c1ccc2c(=O)n(CCCCCC(=O)N3CCN(c4cccc(C)c4C)CC3)c(=O)[nH]c2c1 | inactive: 2.06% | 
CC(C)NC[C@@H](C(=O)N1CCN(c2ncnc3c2[C@H](C)C[C@H]3O)CC1)c1ccc(Cl)cc1 | inactive: 21.4% | 
CCOc1cc(CNc2ccc(O)cc2)cc(Cl)c1OCc1ccccc1 | inactive: -11.5% | 
Cc1ccc(S(=O)(=O)N2CCCc3cc(NC(=O)c4cccc(Cl)c4)ccc32)cc1 | inactive: 9.01% | 

— PubChem BioAssay AID1963576 (National Center for Advancing Translational Sciences (NCATS), 2024)
